From patent publication US20250213478A1, “CATIONIC LIPID HAVING DISULFIDE BOND, LIPID MEMBRANE STRUCTURE INCLUDING SAME, NUCLEIC ACID INTRODUCTION AGENT AND PHARMACEUTICAL COMPOSITION CONTAINING ANY ONE OF SAME, METHOD FOR INTRODUCING NUCLEIC ACID INTO CELL OR TARGET CELL, AND METHOD FOR PRODUCING CELLULAR PHARMACEUTICAL” (NOF Corporation, priority 2022, published 2025)
The name of at least one read-out is uncertain.

system: HeLa cells; test: Evaluation of in vitro gene expression in HeLa cell (luciferase mRNA-encapsulating LNP); type: cell-based, human; details: relative to O-Ph-P4C2 LNP = 1.00
Protocol: LNP encapsulating mRNA that expresses luciferase (cationic lipid:DOPC:Chol:DMG-PEG2k=55:5:40:1 (molar ratio)) was prepared by the method described in [Experimental Example 2], 1.
HeLa cells, which are human cervical cancer cells, were seeded in a 3.5 cm dish at 5.0×10^4 cells/2 mL/Dish 24 hours before transfection. After 24 hours, the medium was exchanged with a culture medium (D-MEM) containing 0.1 mM D-luciferin. Prepared mRNA-encapsulating LNP was diluted with PBS such that the concentration of mRNA was about 8 μg/mL. The diluted mRNA-encapsulating LNP solution (about 50 μL, mRNA: 0.4 μg) was added to the 3.5 cm dish and set in an incubator luminometer KronosDio. The luminescence intensity of luciferase was measured for 2 min every one hour. The cumulative luciferase luminescence intensity for 24 hr was calculated from the obtained time change of expression. For example, “1.0E+06” means “1.0×10^6”. In Comparative Example, the cationic lipid described in the aforementioned Table 3 were used.

**Q.** `CCCCCCCC/C=C\CCCCCCCC(=O)Oc1ccc(CC(=O)OCCC2CCN(CCSSCCN3CCC(CCOC(=O)Cc4ccc(OC(=O)CCCCCCC/C=C\CCCCCCCC)cc4)CC3)CC2)cc1` [Comparative Example, O-Ph-P4C2, reference compound] was tested. Which “relative value based on Comparative Example (cumulative luciferase luminescence over 24 hr)” value (shortened to “relative value based”) did it give?
**A.** 1.00

**Q.** For `CCCCCCCCC(CCCCCC)C(=O)Oc1ccc(CC(=O)OCCSSCCOC(=O)CCCN(C)C)cc1` (stereo not shown) [Example 4], which “relative value based” value is on record?
**A.** 0.03

**Q.** For `CCCCCCCCCCC(CCCCCCCCCC)C(=O)Oc1ccc(CC(=O)OCCSSCCOC(=O)CCCN(C)C)cc1` [Example 5], which “relative value based” value is on record?
**A.** 19.4

**Q.** For `CCCCCCCCCCCCCCC(CCCCCCCCCCCCCC)C(=O)Oc1ccc(CC(=O)OCCSSCCOC(=O)CCCN(C)C)cc1` [Example 7], which “relative value based” value is on record?
**A.** 19.2

**Q.** For `CCCCCCCCCCCCCCCCC(CCCCCCCCCCCCCCCC)C(=O)Oc1ccc(CC(=O)OCCSSCCOC(=O)CCCN(C)C)cc1` [Example 8], which “relative value based” value is on record?
**A.** 25.5

**Q.** For `CCCCCCCCCCCCCCCCCCC(CCCCCCCCCCCCCCCCCC)C(=O)Oc1ccc(CC(=O)OCCSSCCOC(=O)CCCN(C)C)cc1` [Example 9], which “relative value based” value is on record?
**A.** 11.3

**Q.** `CCCCCCCCCCCCCCCCC(CCCCCCCCCCCCCCCC)C(=O)Oc1ccc(CC(=O)OCCSSCCOC(=O)CCCN(CC)CC)cc1` [Example 10] was tested. Which “relative value based” value did it give?
**A.** 17.1

**Q.** Which “relative value based” value does the source give for `CCCCCCCCCCCCCCCCC(CCCCCCCCCCCCCCCC)C(=O)Oc1ccc(CC(=O)OCCSSCCOC(=O)CCCN2CCCCC2)cc1` [Example 11] here?
**A.** 6.06

**Q.** Which “relative value based” value does the source give for `CCCCCCCCCCCCCCCCC(CCCCCCCCCCCCCCCC)C(=O)Oc1ccc(CC(=O)OCCSSCCOC(=O)CCCN(CCC)CCC)cc1` [Example 12] here?
**A.** 0.01

**Q.** With `CCCCCCCCCCCCCCCCC(CCCCCCCCCCCCCCCC)C(=O)Oc1ccc(CC(=O)OCCSSCCOC(=O)C(C)CN(C)C)cc1` (stereo not shown) [Example 13] as the compound, how does the “relative value based” value read?
**A.** 0.01

**Q.** With `CCCCCCCC/C=C\CCCCCCCC(=O)Oc1ccc(CC(=O)OCCSSCCOC(=O)CCCN(C)C)cc1OC(=O)CCCCCCC/C=C\CCCCCCCC` [Example 15] as the compound, how does the “relative value based” value read?
**A.** 7.43

**Q.** For `CCCCCCCCCCCCCCCCC(CCCCCCCCCCCCCCCC)C(=O)Oc1ccc(CC(=O)OCCSSCCN(CC)CC)cc1` [Example 17], which “relative value based” value is on record?
**A.** <0.01

**Q.** With `CCCCCCCCCCCCCCCCC(CCCCCCCCCCCCCCCC)C(=O)Oc1ccc(CC(=O)NCCSSCCNC(=O)CN(C)C)cc1` [Example 18] as the compound, how does the “relative value based” value read?
**A.** 0.36

**Q.** For `CCCCCCCCCCCCCCCCC(CCCCCCCCCCCCCCCC)C(=O)Oc1ccc(CC(=O)NCCSSCCNC(=O)CCN(C)C)cc1` [Example 19], which “relative value based” value is on record?
**A.** 2.30

**Q.** Which “relative value based” value does the source give for `CCCCCCCCCCCCCCCCC(CCCCCCCCCCCCCCCC)C(=O)Oc1ccc(CC(=O)OCCSSCCOC(=O)NCCN(C)C)cc1` [Example 21] here?
**A.** 11.0

**Q.** For `CCCCCCCCCCCCCCCCC(CCCCCCCCCCCCCCCC)C(=O)Oc1ccc(CC(=O)OCCSSCCOC(=O)NCCN(CC)CC)cc1` [Example 22], which “relative value based” value is on record?
**A.** 21.5

**Q.** For `CCCCCCCCCCCCCCCCC(CCCCCCCCCCCCCCCC)C(=O)Oc1ccc(CC(=O)OCCSSCCOC(=O)NCCCN(C)C)cc1` [Example 23], which “relative value based” value is on record?
**A.** 1.85

**Q.** How did the “relative value based” value turn out when `CCCCCCCCCCCCCCCCC(CCCCCCCCCCCCCCCC)C(=O)Oc1ccc(CC(=O)OCCSSCCOC(=O)N(C)CCCN(C)C)cc1` [Example 24] was run?
**A.** 5.62

**Q.** With `CCCCCCCCCCCCCCCCC(CCCCCCCCCCCCCCCC)C(=O)Oc1ccc(CC(=O)OCCSSCCOC(=O)NCCCCN(C)C)cc1` [Example 25] as the compound, how does the “relative value based” value read?
**A.** 1.13

**Q.** How did the “relative value based” value turn out when `CCCCCCCCCCCCCCCCC(CCCCCCCCCCCCCCCC)C(=O)Oc1ccc(CC(=O)OCCSSCCOC(=O)NCCN2CCOCC2)cc1` [Example 26] was run?
**A.** 0.03

**Q.** With `CCCCCCCCCCCCCCCCC(CCCCCCCCCCCCCCCC)C(=O)Oc1ccc(CC(=O)OCCSSCCOC(=O)NCCN(CCCC)CCCC)cc1` [Example 27] as the compound, how does the “relative value based” value read?
**A.** 0.09

**Q.** For `CCCCCCCCCCCCCCCCC(CCCCCCCCCCCCCCCC)C(=O)Oc1ccc(CC(=O)OCCSSCCOC(=O)NCCN(C(C)C)C(C)C)cc1` [Example 28], which “relative value based” value is on record?
**A.** 4.13

**Q.** For `CCCCCCCCCCCCCCCCC(CCCCCCCCCCCCCCCC)C(=O)Oc1ccc(CC(=O)OCCSSCCOC(=O)N(C)CCN(CC)CC)cc1` [Example 29], which “relative value based” value is on record?
**A.** 1.58

**Q.** Which “relative value based” value does the source give for `CCCCCCCCCCCCCCCCC(CCCCCCCCCCCCCCCC)C(=O)Oc1ccc(CC(=O)OCCSSCCOC(=O)OCCN(C)C)cc1` [Example 30] here?
**A.** 1.22

**Q.** For `CCCCCCCCCCCCCC(=O)OCC(C)(COC(=O)CCCCCCCCCCCCC)C(=O)Oc1ccc(CC(=O)OCCSSCCOC(=O)NCCN(CC)CC)cc1` [Example 31], which “relative value based” value is on record?
**A.** 14.2

**Q.** How did the “relative value based” value turn out when `CCCCCCCCCCCCCCCC(=O)OCC(C)(COC(=O)CCCCCCCCCCCCCCC)C(=O)Oc1ccc(CC(=O)OCCSSCCOC(=O)NCCN(CC)CC)cc1` [Example 32] was run?
**A.** 7.92

**Q.** For `CCCCCCCCCCCCCCCCCC(=O)OCC(C)(COC(=O)CCCCCCCCCCCCCCCCC)C(=O)Oc1ccc(CC(=O)OCCSSCCOC(=O)NCCN(CC)CC)cc1` [Example 33], which “relative value based” value is on record?
**A.** 0.49

**Q.** With `CCCCCCCC/C=C\CCCCCCCC(=O)OCC(C)(COC(=O)CCCCCCC/C=C\CCCCCCCC)C(=O)Oc1ccc(CC(=O)OCCSSCCOC(=O)NCCN(CC)CC)cc1` [Example 34] as the compound, how does the “relative value based” value read?
**A.** 9.72

**Q.** With `CCCCC/C=C\C/C=C\CCCCCCCC(=O)OCC(C)(COC(=O)CCCCCCC/C=C\C/C=C\CCCCC)C(=O)Oc1ccc(CC(=O)OCCSSCCOC(=O)NCCN(CC)CC)cc1` [Example 35] as the compound, how does the “relative value based” value read?
**A.** 5.72

**Q.** Which “relative value based” value does the source give for `CCCCCCCC/C=C\CCCCCCCC(=O)OCC(C)(COC(=O)CCCCCCC/C=C\CCCCCCCC)C(=O)Oc1ccc(CC(=O)OCCSSCCOC(=O)NCCN(C)CCO)cc1` [Example 36] here?
**A.** 6.91

**Q.** With `CCCCCCCCCCCCCCCCC(CCCCCCCCCCCCCCCC)C(=O)Oc1ccc(CC(=O)OCCSSCCOC(=O)/C=C/CN(C)C)cc1` [Example 38] as the compound, how does the “relative value based” value read?
**A.** 0.01

**Q.** Which “relative value based” value does the source give for `CCCCCCCCCCCCCCCCC(CCCCCCCCCCCCCCCC)C(=O)Oc1ccc(CC(=O)OCCSSCCOC(=O)/C=C/CN(CC)CC)cc1` [Example 39] here?
**A.** <0.01

**Q.** With `CCCCCCCCCCCCCCCCC(CCCCCCCCCCCCCCCC)C(=O)Oc1ccc(CC(=O)OCCSSCCOC(=O)/C=C/CN(CC)CCO)cc1` [Example 40] as the compound, how does the “relative value based” value read?
**A.** 0.02

**Q.** How did the “relative value based” value turn out when `CCCCCCCC/C=C\CCCCCCCC(=O)Oc1ccc(CC(=O)OCC(C)(COC(=O)Cc2ccc(OC(=O)CCCCCCC/C=C\CCCCCCCC)cc2)C(=O)OCCSSCCOC(=O)NCCN(CC)CC)cc1` [Example 42] was run?
**A.** 3.27
